# In publication PMC6919601, “Identification of Plasmodium dipeptidyl aminopeptidase allosteric inhibitors by high throughput screening” (PLoS ONE, 2019):
# Screen size: about 110,000 compounds; about 230 (0.21%) showed an effect of 50% or more. The list shows a part of the results.
# Target: DPAP1 (Plasmodium falciparum, UniProt Q8IIJ9)
# Experiment: primary screen, percent inhibition; read by cleavage of a fluorogenic dipeptide substrate; higher = more effect of the substance
# Design: species or system P. falciparum D10 trophozoite lysates; single well
# 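Also: 30 min substrate incubation versus DMSO and 10 µM JCP410 controls.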
# Chain of DPAP1 (Q8IIJ9 whole entry, looked up): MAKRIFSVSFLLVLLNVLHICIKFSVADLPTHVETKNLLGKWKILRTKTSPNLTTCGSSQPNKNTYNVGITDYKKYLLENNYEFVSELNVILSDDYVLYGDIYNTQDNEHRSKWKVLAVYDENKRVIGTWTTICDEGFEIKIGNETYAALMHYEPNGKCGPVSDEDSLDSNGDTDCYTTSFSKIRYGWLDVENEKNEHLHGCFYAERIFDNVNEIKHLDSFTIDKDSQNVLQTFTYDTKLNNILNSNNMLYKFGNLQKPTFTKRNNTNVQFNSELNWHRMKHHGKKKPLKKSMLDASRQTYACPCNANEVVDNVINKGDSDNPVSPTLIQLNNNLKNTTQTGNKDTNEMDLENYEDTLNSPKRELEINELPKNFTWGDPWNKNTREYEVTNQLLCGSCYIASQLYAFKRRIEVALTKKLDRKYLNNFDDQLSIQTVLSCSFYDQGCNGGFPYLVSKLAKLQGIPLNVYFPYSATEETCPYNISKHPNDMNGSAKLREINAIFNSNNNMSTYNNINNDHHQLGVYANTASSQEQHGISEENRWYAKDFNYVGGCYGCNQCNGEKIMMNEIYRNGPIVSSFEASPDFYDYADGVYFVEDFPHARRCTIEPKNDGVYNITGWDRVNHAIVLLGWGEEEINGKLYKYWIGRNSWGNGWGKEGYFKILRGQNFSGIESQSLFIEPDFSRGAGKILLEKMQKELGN
row,SMILES,% Inhibition @ 10 uM
1,Cc1cc(Cl)ccc1OCC(=O)Nc1ccc(Br)cc1,0.907%
2,CCC(Sc1nc2ccccc2c2nc(CCn3nc(C)cc3C)nn12)C(=O)NCCCOC (stereo not shown),-2.21%
3,O=C(c1ccccc1NS(=O)(=O)Cc1ccccc1Cl)N1CCCCC1,0.145%
4,Cc1cc(-c2ccccc2)nc2cc(C(=O)Nc3cc(Cl)ccc3Cl)nn12,-1.66%
5,COc1ccc(OC)c(-n2cnc3cc(C(=O)NCc4ccccc4)ccc32)c1,-7.57%
6,COc1ccc(C(=O)Nc2nc(C)cs2)c(OC)n1,5.01%
7,Cc1ccnc(NC(=O)c2ccc(C)cc2C)c1,1.94%
8,O=C1NC(=O)C(CCc2ccncc2)(Cc2ccc(Cl)cc2)C(=O)N1,-3.04%
9,COc1ccc(C(=O)Nc2sc3c(c2C(N)=O)CCC(C)C3)c(OC)c1 (stereo not shown),-18.6%
10,CC(=O)c1ccc(NC(=O)Cn2cnc3ccccc32)cc1,2.17%
11,CCc1ccccc1NCC(O)COc1ccccc1 (stereo not shown),-1.07%
12,O=C(Nc1c(C(=O)N2CCOCC2)cnn1-c1ccccc1)c1ccc(Br)cc1,-11.3%
13,CC(=O)Nc1ccc(NC(=O)c2ccccc2F)cc1,4.57%
14,CCOC(=O)C1CCCN(Cc2ccc(OC)c(C)c2C)C1 (stereo not shown),3.1%
15,O=S(=O)(c1ccc(-n2cccn2)cc1)N1CCCC2CCCCC21 (stereo not shown),-0.913%
16,CCN(Cc1ccccc1)c1nc2c(S(=O)(=O)c3ccccc3)nnn2c2ccsc12,-5.88%
17,O=C(O)C12CC3CC(CC(O)(C3)C1)C2,0.716%
18,NS(=O)(=O)c1ccc(CCNCc2cccs2)cc1,0.032%
19,CC1CCN(c2nc3ccc(C(=O)NCc4ccco4)cc3s2)CC1,4.22%
20,COc1cccc2c1Oc1ncccc1N(C(=O)CCC(=O)NCCCc1ccccc1)C2,2.18%
21,O=C(Nc1ccc(Cl)cc1)c1ccc(CN2CCOCC2)cc1,0.643%
22,COc1ccc(CCN)c(OCc2ccccc2)c1OC,12.3%

row,SMILES,% Inhibition @ 10 uM
1,COc1ccc(CN2CCCN(C)CC2)c(OC)c1,-2.03%
2,CCOC(=O)c1ccc(-n2cc(-c3ccc(OCC)cc3)nc2S)cc1,30.2%
3,COc1cccc(CN2CCN(Cc3ccc(Cl)cc3)CC2)c1,-9.65%
4,Oc1ccc(-c2cnc3ccccc3n2)cc1O,1.02%
5,CC(C)c1ccc(S(=O)(=O)NC(C)(C)C)cc1,1.13%
6,Cc1ccc(-c2cn3nc(N4CCC(C(=O)N5CCOCC5)CC4)sc3n2)cc1,2.37%
7,O=C(COc1ccc(C2C3=C(O)CCCC3=NC3=C2C(=O)CCC3)cc1Cl)Nc1ccccc1 (stereo not shown),2.38%
8,CCc1c(C)sc(NC(=O)c2ccco2)c1C#N,7.1%
9,CCOc1ccc(C2Nn3c(nnc3-c3ccccc3)SC2C(=O)NCCOC)cc1 (stereo not shown),-1.72%
10,COc1ccc(C(=O)Nc2cccc(Cl)c2)cc1OC,3.03%
11,CS(=O)(=O)C1=NSC2=NC(=O)/C(=C\c3cn(Cc4ccccc4)c4ccccc34)C(=N)N21,1.85%
12,COc1cc(OC)cc(-c2cc3nc(C)c(CCC(=O)Nc4cccnc4)c(C)n3n2)c1,-2.25%
13,Cc1ccc2nc3c(cc(C(N)=O)c(=N)n3Cc3cccnc3)c(=O)n2c1,-1.47%
14,FC(F)(F)c1ccc(CN2CCOCC2)cc1,-4.28%
15,O=S(=O)(NCCNS(=O)(=O)c1ccc(F)cc1)c1ccc(F)cc1,-6.57%
16,CCn1c(C(=O)N2CCC(C(=O)NCc3ccc4c(c3)OCO4)CC2)cc2sccc21,2.23%
17,C=CCn1c(N2CCOCC2)nc2c1c(=O)n(C)c(=O)n2C,-2.84%
18,COc1ccc(OCC(=O)Nc2ccccc2)cc1,-3.39%
19,COc1ccc(C2C(=O)N(CCc3ccccc3)CC(=O)N2CCc2ccc(OC)c(OC)c2)cc1 (stereo not shown),-2.26%
20,O=C(NC1CCCCCC1)c1cc(-c2ccco2)[nH]n1,-2.18%
21,Cc1[nH]c(=O)n(C)c(=O)c1S(=O)(=O)N(C)Cc1ccccc1,4.61%
22,Cc1ccc2c(c1)-c1c(cnn1CC(=O)NCCN(C)C)CO2,19.3%

row,SMILES,% Inhibition @ 10 uM
1,COCCCN1C(=O)/C(=C/c2ccc(CNS(=O)(=O)c3ccccc3)o2)C(C(=O)OC)=C1C,1.84%
2,O=C1NC(c2cccnc2)c2c(-c3cccs3)n[nH]c21 (stereo not shown),-3.35%
3,Cc1ccc(C(=O)N2CCN(C(=O)CN3CCCC3)C2)cc1,4.3%
4,Cc1cc(OCC(O)CN2CCC(C)CC2)ccc1C(C)C (stereo not shown),-2.35%
5,CCOc1ccc(NC(=O)C2=C(C)NC(=O)NC2c2ccc(OC)c(OC)c2)cc1 (stereo not shown),12.1%
6,O=C1C=C(c2ccccc2)OC(c2ccc([N+](=O)[O-])cc2)O1 (stereo not shown),5.69%
7,O=C1NC(=O)/C(=C\c2cn(Cc3ccccc3F)c3ccccc23)N1,2.17%
8,Cc1ccc(CN2CCN(c3ncccn3)CC2)s1,-2.95%
9,CC(C)CC(NC(=O)c1ccc(NC(=O)Nc2ccc(C(=O)NC(CC(C)C)C(=O)NCC#N)cc2)cc1)C(=O)NCC#N (stereo not shown),0.744%
10,Cc1cccc(-c2noc(CN(C(=O)C34CC5CC(CC(C5)C3)C4)C(C)C)n2)c1,2.78%
11,COc1ccc([C@@H](O)[C@@H](N)c2ccccc2)cc1,5.84%
12,COCCNC(=O)c1ccc2c(Cl)c3c(nc2c1)CCCC3,-4.62%
13,CC(C)NC(=O)C1c2ccccc2C(=O)N(C)C1c1cccs1 (stereo not shown),-2.97%
14,COc1cccc(CNC(=O)C2CCN(S(=O)(=O)N3CCC4(CC3)OCCO4)CC2)c1,-2.99%
15,COc1ccc(-n2c(SCC(=O)NCC3CCCO3)nc3c4ccccc4nc-3c2O)cc1 (stereo not shown),-2.12%
16,Cc1cc(N2C(N)=C(C#N)C(c3cc(Cn4cnc5ccccc54)cs3)C3=C2CCCC3=O)no1 (stereo not shown),-0.92%
17,COc1ccccc1NS(=O)(=O)c1ccc(C(C)C)cc1,2.78%
18,CCOC(=O)N1CCN(C(=O)c2ccc(CS(=O)(=O)c3ccccc3OC)o2)CC1,-1.28%
19,Cc1onc(-c2ccccc2)c1C(=O)N1CCN(c2ccc(Cl)cc2)CC1,6.06%
20,CC1(C)[C@H]2CC=C(CN(CCO)CCO)[C@@H]1C2,-5.65%
